Experimental data published in article PMC12820563.
The list shows a part of the results. The list includes weakly bound sequences.

The sequences below were run against T1, MBP-FoxP3dN (UniProt Q99JB6) (assay: PD-seq (MBP pull-down with sequencing)). Details: 20 mM Tris-HCl pH 7.5, 100 mM NaCl, 1.5 mM MgCl2, 0.4 uM protein, 0.1 uM dsDNA library, 30 min, room temperature, amylose pull-down; high values mean tight binding; double strand, one strand shown.
T1 sequence: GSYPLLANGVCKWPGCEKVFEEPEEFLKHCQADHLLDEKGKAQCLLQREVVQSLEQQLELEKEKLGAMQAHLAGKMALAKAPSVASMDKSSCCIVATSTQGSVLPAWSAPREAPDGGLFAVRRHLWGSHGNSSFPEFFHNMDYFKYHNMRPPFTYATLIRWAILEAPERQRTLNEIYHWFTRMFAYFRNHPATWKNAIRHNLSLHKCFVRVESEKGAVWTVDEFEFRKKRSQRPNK

Sequence	binding signal (RPM ratio (pull-down/input))
GATGATTGTTCTCCCAGCTGATGAATTCACCACCTCGAGTAAACAAATTTTCCTAATCTTTCTGTTCAAGCGCCATCTAC	0.353
GATGATTGTTCTCCCAGCTGATGAATTATCGTGATCGAGTAAACAAATTTTCCTAATCTTTCTGTTCAAGCGCCATCTAC	0.421
GATGATTGTTCTCCCAGCTGATGAATTGAGGGGTTCGAGTAAACAAATTTTCCTAATCTTTCTGTTCAAGCGCCATCTAC	0.486
GATGATTGTTCTCCCAGCTGATGAATTGTGTTGATCGAGTAAACAAATTTTCCTAATCTTTCTGTTCAAGCGCCATCTAC	7.06
GATGATTGTTCTCCCAGCTGATGAATTTTGGTTATCGAGTAAACAAATTTTCCTAATCTTTCTGTTCAAGCGCCATCTAC	1.54
GATGATTGTTCTCCCAGCTGATGAATTTGAGGTCTCGAGTAAACAAATTTTCCTAATCTTTCTGTTCAAGCGCCATCTAC	0.871
GATGATTGTTCTCCCAGCTGATGAATTTTGGGTTTCGAGTAAACAAATTTTCCTAATCTTTCTGTTCAAGCGCCATCTAC	0.761
GATGATTGTTCTCCCAGCTGATGAATTCGAAAGTTCGAGTAAACAAATTTTCCTAATCTTTCTGTTCAAGCGCCATCTAC	0.244
GATGATTGTTCTCCCAGCTGATGAATTACGACCCTCGAGTAAACAAATTTTCCTAATCTTTCTGTTCAAGCGCCATCTAC	0.443
GATGATTGTTCTCCCAGCTGATGAATTTCATCCCTCGAGTAAACAAATTTTCCTAATCTTTCTGTTCAAGCGCCATCTAC	0.419
GATGATTGTTCTCCCAGCTGATGAATTCGGGGCATCGAGTAAACAAATTTTCCTAATCTTTCTGTTCAAGCGCCATCTAC	0.686
GATGATTGTTCTCCCAGCTGATGAATTACGTTAATCGAGTAAACAAATTTTCCTAATCTTTCTGTTCAAGCGCCATCTAC	0.422
GATGATTGTTCTCCCAGCTGATGAATTTTAGGAGTCGAGTAAACAAATTTTCCTAATCTTTCTGTTCAAGCGCCATCTAC	0.198
GATGATTGTTCTCCCAGCTGATGAATTATGGGGATCGAGTAAACAAATTTTCCTAATCTTTCTGTTCAAGCGCCATCTAC	0.394
GATGATTGTTCTCCCAGCTGATGAATTTGGAGTCTCGAGTAAACAAATTTTCCTAATCTTTCTGTTCAAGCGCCATCTAC	1.26
GATGATTGTTCTCCCAGCTGATGAATTATAAGAGTCGAGTAAACAAATTTTCCTAATCTTTCTGTTCAAGCGCCATCTAC	0.282
GATGATTGTTCTCCCAGCTGATGAATTTAAACACTCGAGTAAACAAATTTTCCTAATCTTTCTGTTCAAGCGCCATCTAC	0.675
GATGATTGTTCTCCCAGCTGATGAATTTCACCGGTCGAGTAAACAAATTTTCCTAATCTTTCTGTTCAAGCGCCATCTAC	0.208
GATGATTGTTCTCCCAGCTGATGAATTTTCTGCATCGAGTAAACAAATTTTCCTAATCTTTCTGTTCAAGCGCCATCTAC	0.961
GATGATTGTTCTCCCAGCTGATGAATTCCACATCTCGAGTAAACAAATTTTCCTAATCTTTCTGTTCAAGCGCCATCTAC	0.538

Sequence	binding signal (RPM ratio (pull-down/input))
GATGATTGTTCTCCCAGCTGATGAATTATGCGCGTCGAGTAAACAAATTTTCCTAATCTTTCTGTTCAAGCGCCATCTAC	3.33
GATGATTGTTCTCCCAGCTGATGAATTTAACGCATCGAGTAAACAAATTTTCCTAATCTTTCTGTTCAAGCGCCATCTAC	1.01
GATGATTGTTCTCCCAGCTGATGAATTGGAAACTTCGAGTAAACAAATTTTCCTAATCTTTCTGTTCAAGCGCCATCTAC	0.272
GATGATTGTTCTCCCAGCTGATGAATTATGCTCTTCGAGTAAACAAATTTTCCTAATCTTTCTGTTCAAGCGCCATCTAC	0.928
GATGATTGTTCTCCCAGCTGATGAATTTGTTCTATCGAGTAAACAAATTTTCCTAATCTTTCTGTTCAAGCGCCATCTAC	1.48
GATGATTGTTCTCCCAGCTGATGAATTTATGCGCTCGAGTAAACAAATTTTCCTAATCTTTCTGTTCAAGCGCCATCTAC	1.41
GATGATTGTTCTCCCAGCTGATGAATTCTCATCGTCGAGTAAACAAATTTTCCTAATCTTTCTGTTCAAGCGCCATCTAC	0.326
GATGATTGTTCTCCCAGCTGATGAATTGAAACACTCGAGTAAACAAATTTTCCTAATCTTTCTGTTCAAGCGCCATCTAC	0.636
GATGATTGTTCTCCCAGCTGATGAATTATGAGTTTCGAGTAAACAAATTTTCCTAATCTTTCTGTTCAAGCGCCATCTAC	2.02
GATGATTGTTCTCCCAGCTGATGAATTACTCACGTCGAGTAAACAAATTTTCCTAATCTTTCTGTTCAAGCGCCATCTAC	0.349
GATGATTGTTCTCCCAGCTGATGAATTGCCGTAATCGAGTAAACAAATTTTCCTAATCTTTCTGTTCAAGCGCCATCTAC	0.9
GATGATTGTTCTCCCAGCTGATGAATTCCACGTGTCGAGTAAACAAATTTTCCTAATCTTTCTGTTCAAGCGCCATCTAC	0.486
GATGATTGTTCTCCCAGCTGATGAATTTATGGGCTCGAGTAAACAAATTTTCCTAATCTTTCTGTTCAAGCGCCATCTAC	0.901
GATGATTGTTCTCCCAGCTGATGAATTTGCTGTCTCGAGTAAACAAATTTTCCTAATCTTTCTGTTCAAGCGCCATCTAC	6.16
GATGATTGTTCTCCCAGCTGATGAATTTCTTTAGTCGAGTAAACAAATTTTCCTAATCTTTCTGTTCAAGCGCCATCTAC	0.745
GATGATTGTTCTCCCAGCTGATGAATTAACCTTGTCGAGTAAACAAATTTTCCTAATCTTTCTGTTCAAGCGCCATCTAC	0.245
GATGATTGTTCTCCCAGCTGATGAATTCCCGAGTTCGAGTAAACAAATTTTCCTAATCTTTCTGTTCAAGCGCCATCTAC	0.355
GATGATTGTTCTCCCAGCTGATGAATTCCATGTCTCGAGTAAACAAATTTTCCTAATCTTTCTGTTCAAGCGCCATCTAC	0.592
GATGATTGTTCTCCCAGCTGATGAATTGATCTGCTCGAGTAAACAAATTTTCCTAATCTTTCTGTTCAAGCGCCATCTAC	0.268
GATGATTGTTCTCCCAGCTGATGAATTATTTGTCTCGAGTAAACAAATTTTCCTAATCTTTCTGTTCAAGCGCCATCTAC	2.46
